According to PubChem BioAssay AID488969 (Vanderbilt High Throughput Screening Facility, 2010):
The full ranking holds about 110,000 compounds; the median of “z-score” is about -0.1, and the highest 2% start at about 2. The list shows a part of the results. Activity calls are given as the source filed them.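 The calls were made as follows: active = z-score in the third read window above 3 or below -3; inactive = the rest.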

target: Metabotropic glutamate receptor 8 (Rattus norvegicus) (UniProt P70579); assay: mGluR8 Gi/Go-coupled signaling modulation – cell-based, rat, thallium flux, HTS, primary screen (AID 488969); conditions: HEK293 rat mGluR8, GIRK (G protein-gated inwardly rectifying potassium channel) thallium flux, FluoZin2; at 10 µM; stronger effect = higher value; submaximal glutamate (EC20) added with thallium
Chain of UniProt P70579 (P70579 whole entry, looked up): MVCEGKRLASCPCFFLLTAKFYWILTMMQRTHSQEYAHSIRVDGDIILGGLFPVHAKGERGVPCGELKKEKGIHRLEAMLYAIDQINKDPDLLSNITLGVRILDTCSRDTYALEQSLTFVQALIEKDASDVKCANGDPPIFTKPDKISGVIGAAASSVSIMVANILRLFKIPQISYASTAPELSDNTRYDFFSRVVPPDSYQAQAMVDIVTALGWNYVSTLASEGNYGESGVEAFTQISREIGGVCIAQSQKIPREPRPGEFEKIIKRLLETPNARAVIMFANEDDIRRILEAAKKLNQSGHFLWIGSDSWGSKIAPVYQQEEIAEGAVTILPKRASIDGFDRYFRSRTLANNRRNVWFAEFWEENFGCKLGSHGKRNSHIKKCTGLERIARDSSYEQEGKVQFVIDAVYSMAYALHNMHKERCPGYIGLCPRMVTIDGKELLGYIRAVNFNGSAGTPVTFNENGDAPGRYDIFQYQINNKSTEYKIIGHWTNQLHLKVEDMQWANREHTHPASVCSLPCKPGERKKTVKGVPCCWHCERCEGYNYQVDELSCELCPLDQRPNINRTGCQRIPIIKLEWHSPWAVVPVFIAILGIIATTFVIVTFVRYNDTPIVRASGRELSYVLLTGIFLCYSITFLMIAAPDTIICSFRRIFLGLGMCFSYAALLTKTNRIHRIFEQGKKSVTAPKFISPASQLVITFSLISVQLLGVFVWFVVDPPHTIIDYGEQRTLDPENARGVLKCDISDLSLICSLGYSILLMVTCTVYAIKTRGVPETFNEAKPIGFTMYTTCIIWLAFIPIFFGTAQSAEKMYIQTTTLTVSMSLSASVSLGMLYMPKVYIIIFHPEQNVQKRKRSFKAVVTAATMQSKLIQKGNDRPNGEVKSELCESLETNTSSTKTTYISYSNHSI

| SMILES | z-score |
| --- | --- |
| Cc1ccccc1OC(C)C(=O)NC1CCCC1 (stereo unspecified) | -0.0663 |
| N=C1/C(=C\c2ccc(SCc3ccco3)o2)C(=O)N=C2SC=NN12 | -0.277 |
| Oc1ccccc1N1CCN(c2ncccn2)CC1 | 0.0492 |
| CCC(=O)NCCc1cc2cc(C)c(C)cc2[nH]c1=O | 0.381 |
| Cc1ccc(-c2nnn(CC(=O)N(Cc3cccs3)C(C(=O)NC3CCCC3)c3ccncc3)n2)cc1 (stereo unspecified) | -0.258 |
| O=C(O/N=C\c1ccc(N2CCCCC2)c([N+](=O)[O-])c1)c1cccc(Cl)c1 | -0.494 |
| O=C(c1cc(-c2ccc(F)cc2)on1)N1CCCC1 | 0.605 |
| CCOc1ccc(-c2nnc(-c3ccncc3)o2)cc1 | -0.243 |
| CC1CN(c2oc(-c3ccco3)nc2C#N)CC(C)O1 (stereo unspecified) | -0.251 |
| CSc1ccccc1NC(=O)Nc1cccc(Cl)c1Cl | 0.0344 |
| S=C(Nc1ccccc1)N1CCCCC1 | -0.0174 |
| CC1CCCN(C(=O)CN2C(=O)c3ccccc3C2=O)C1 (stereo unspecified) | -0.723 |
| CCCCN=C(N)/C(C(=O)OCC)=C(\O)c1ccc(OC)cc1 | 0.334 |
| CN(C(=S)NC1=CCS(=O)(=O)C1)C1CCCCC1 | -0.225 |
| CCn1nccc1C(=O)Nc1nc2ccccc2n1CCN1CCCCC1 | -0.307 |
| Clc1ccc(-c2nnc(NCc3ccccc3)c3ccccc23)cc1 | -0.291 |
| COC(=O)c1cccc(NC(=O)c2ccc3c(c2)C(=O)N(CC2CCCO2)C3=O)c1 (stereo unspecified) | 0.0525 |
| Cc1ccc(NCC(=O)Nc2cccc(S(=O)(=O)N(C)C)c2)c(Cl)c1 | active: 4.79 |
| O=C(NCCCCc1ccccc1)c1ccc(Br)o1 | -0.396 |
| CCOC(=O)C(C)Sc1nnc(-c2ccccc2O)n1Cc1ccccc1 (stereo unspecified) | -0.184 |
| COc1ccc(-n2c(/C=C(\C)O)nc(=O)c3c(C)cc(C)nc32)cc1 | -1.79 |
| CCc1oc(C(=O)O)cc1CN(CC)CC | 0.229 |
| O=C(NCCc1csc(-c2cccnc2)n1)c1ccccc1 | -0.261 |

| SMILES | z-score |
| --- | --- |
| Cc1ccc2occ(/C=C/C(=O)O)c(=O)c2c1 | 0.113 |
| CCn1cc([N+](=O)[O-])c(C(=O)N2N=C(c3cccc4ccccc34)CC2c2ccccc2O)n1 (stereo unspecified) | 0.0967 |
| CN1CCN(S(=O)(=O)c2ccc3c(c2)NC(=O)C2CCCN32)CC1 (stereo unspecified) | -0.228 |
| CCNC(=S)N(Cc1ccc2c(c1)OCO2)C1CC(=O)N(c2ccc(F)cc2)C1=O (stereo unspecified) | -0.0723 |
| CCn1c2ccccc2c2nnc(SCC(=O)Nc3ccc4c(c3)OCO4)nc21 | 0.64 |
| CC(=O)Cc1nsc(NC(=O)c2csc3c2CCCC3)n1 | 0.156 |
| COc1ccc(Cl)cc1C(=O)NCCN(C)C | 0.157 |
| COc1ccc(CC(=O)Nc2nc(-c3cccc([N+](=O)[O-])c3)cs2)cc1 | -0.0651 |
| Cc1nn(-c2ccccc2)c(C)c1/C=N/NC(=O)c1cc(C(C)(C)C)[nH]n1 | -0.989 |
| C=CCOc1ccc(C=Nc2ccc(Cl)cc2)c(O)c1 | -0.371 |
| CCCCc1c(O)nc(SCC(=O)NC(C)(C)C)n(-c2ccccc2C)c1=O | 0.148 |
| COC(=O)CSc1nc2c(c(=O)[nH]c(=O)n2C)n1CCC(C)C | -0.127 |
| COc1ccc(C(NC(=O)/C=C/c2ccco2)c2ccc(OC)c(OC)c2)cc1OC | -0.0828 |
| COc1cccc(OCCCCSc2ncccn2)c1 | -0.4 |
| COc1ccc(C(=O)Nc2cccc(-c3nnc(-c4ccco4)o3)c2)cc1 | -0.857 |
| CN(Cc1nnc(SCC(=O)NCCc2ccccc2)n1C)S(=O)(=O)c1ccccc1 | -0.226 |
| Cc1ccc(CNC(=O)C2CC(c3ccc([N+](=O)[O-])cc3)=NO2)cc1 (stereo unspecified) | 0.116 |
| Cc1ccc(NC(=O)C2(c3ccccc3)CCOCC2)c([N+](=O)[O-])c1 | 0.0769 |
| COc1nc(NC(C)(C)C)nc(Oc2ccc(=O)n(-c3ccccc3)n2)n1 | -0.0471 |
| CCN=C(NCC)SC1CC(=O)N(c2cccc(OCC)c2)C1=O (stereo unspecified) | 0.256 |
| O=C(Cc1cccs1)NNC(=S)NCc1ccc(Cl)cc1 | 0.477 |
| CCC(C(=O)NCc1ccccc1OC)n1nc(C)n2c(cc3occc32)c1=O (stereo unspecified) | -0.272 |
| CC(C)[C@H](NC(=O)c1ccccc1)C(=O)N1CCc2ccccc21 | -0.0295 |

| SMILES | z-score |
| --- | --- |
| Cc1ccc(C2Nc3ccc4ccccc4c3C3=C2C(=O)CC(C)(C)C3)o1 (stereo unspecified) | 0.339 |
| Cc1cc(SCC(=O)c2ccccc2)nc(C)n1 | 0.11 |
| CCCCC(=O)Nc1nnc(SCC(=O)NC2CCCC2)s1 | -0.859 |
| COC(=O)c1sc2nc(CN3CCN(c4cccc(C(F)(F)F)c4)CC3)[nH]c(=O)c2c1C | -0.163 |
| COc1ccccc1C(=O)N/C(N)=N/c1nc2ccccc2o1 | -0.492 |
| O=C(c1cccc(C(F)(F)F)c1)N1CCCC1 | -0.266 |
| CCOC(=O)c1c(C2COc3ccccc3O2)csc1NC(=O)c1ccco1 (stereo unspecified) | 0.786 |
| Cn1c(=O)c(=O)n(C)c2cc(S(=O)(=O)N3CCCCC3)ccc21 | 0.807 |
| Nc1nnc(SCc2ccccc2)n1-c1ccccc1 | -0.294 |
| Clc1cccc(CSc2nnc(-c3c[nH]c4ccccc34)o2)c1 | -0.312 |
| O=C(C1CCCCC1)N1CCCn2c1nc1ccccc12 | -0.596 |
| CCc1cc2ccc(C)cc2nc1SCC(=O)NNC(=O)c1ccco1 | 1.26 |
| COC(=O)c1cc(COc2ccc3c(c2)oc(=O)c2ccccc23)c(C)o1 | -0.108 |
| O=C(NC1CCCCCC1)C1CCN(c2nc3ccccc3o2)CC1 | -0.278 |
| CCOC(=O)C1CCN(c2c(NCCN3CCN(c4ccccc4)CC3)c(=O)c2=O)CC1 | 0.155 |
| CC(=O)Nc1cc(S(=O)(=O)Nc2ccccc2)c(C)cc1C | -0.09 |
| Cc1ccc(NC(=O)C2C3CCCC2C3c2ccccc2)c(C)c1 (stereo unspecified) | -0.126 |
| CC(C)CCNC(=O)CN(Cc1ccc2c(c1)OCO2)C(=O)Cn1nnc(-c2cccs2)n1 | -0.787 |
| O=C(N=Nc1c(O)[nH]c2ccc(Br)cc12)c1ccccc1-n1cccc1 | -1.22 |
| CCc1c(C)sc(NC(=O)C2CCCCC2C(=O)O)c1C(N)=O (stereo unspecified) | -0.227 |
| Cc1nc2ccccn2c1-c1nnco1 | 0.116 |
| O=c1c2c3c(sc2nc2sc(CN4CCCCC4)cn12)CCCC3 | -0.178 |
| CCC1CCCCN1S(=O)(=O)c1ccc(S(=O)(=O)N(Cc2ccccn2)CC2CCCO2)cc1 (stereo unspecified) | -0.251 |

| SMILES | z-score |
| --- | --- |
| O=C(CCNc1n[nH]c(=O)[nH]c1=O)N1CCOCC1 | -0.44 |
| CC1(C)COC(c2coc3ccccc3c2=O)OC1 | 0.437 |
| CCOC(=O)c1sc(C)c2c(=O)n(CCc3ccccc3)nnc12 | -0.606 |
| COC(=O)c1cccc(S(=O)(=O)N(Cc2ccco2)Cc2cc3cc(OC)ccc3[nH]c2=O)c1 | 0.188 |
| CCOc1ccc(C(=O)NC(=S)Nc2ncccc2C)cc1[N+](=O)[O-] | -0.0354 |
| O=C(Cn1c2ccccc2c(=O)c2ccccc21)N/N=C/c1cc([N+](=O)[O-])ccc1N1CCCCCC1 | 0.36 |
| CC(NC(=O)C1CCCN(S(=O)(=O)c2cccs2)C1)c1ccccc1 (stereo unspecified) | -0.404 |
| CCOC(=O)/C(C#N)=C/c1cc(C)n(-c2ccc(C)cc2)c1C | -0.0145 |
| O=C(NCCCN1CCCCCC1)C1CC(=O)N(CCc2ccccc2)C1 (stereo unspecified) | 0.503 |
| CC(C)CN1C(=O)NC(NC(=O)c2ccco2)(C(F)(F)F)C1=O (stereo unspecified) | 0.0372 |
| CCN(CC)C(C(=O)Nc1ccc(C(C)C)cc1)c1ccc2c(c1)OCO2 (stereo unspecified) | 0.483 |
| O=C(O)c1cccc(NC(=O)C2CC(=O)N(Cc3ccccc3)C2)c1 (stereo unspecified) | 0.121 |
| O=C(COC(=O)CCc1ccc(S(=O)(=O)N2CCOCC2)cc1)NC1CCCCCC1 | -0.285 |
| CCOc1ccc2cc(S(=O)(=O)N3CCOCC3)ccc2c1 | -0.000556 |
| O=C(Oc1ccccc1C(=O)N1CCOCC1)c1ccc(Br)cc1 | -0.229 |
| CCC(=O)NC(=S)Nc1cccc(NC(=O)CC)c1 | 0.095 |
| O=C(Nc1ccc(Cl)cc1F)C1CC1 | 0.223 |
| CC(=O)OC1COC(N2CCc3ccccc32)C(OC(C)=O)C1OC(C)=O (stereo unspecified) | -0.185 |
| CN(C)CCCN1C(=O)c2oc3ccc(Cl)cc3c(=O)c2C1c1cccnc1 (stereo unspecified) | 0.772 |
| COc1ccc(C(=O)N2CCN(C3CCN(Cc4ccccc4)CC3)CC2)cc1OC | 0.152 |
| CCOC(=O)c1ccc2c(c1)nc(C)n2CC | -0.272 |
| CCOC(=O)N1CCN(C(=O)C2CCCN(S(=O)(=O)c3cccnc3)C2)CC1 (stereo unspecified) | -0.952 |
| Cc1ccc(/C=C/C(=O)O)cc1S(=O)(=O)NCCCC(=O)O | -0.206 |

| SMILES | z-score |
| --- | --- |
| COc1ccc(C(=O)CSc2nnc(CCc3ccccc3)n2-c2ccccc2)cc1 | -0.133 |
| O=C(CCCC(=O)N(CC(=O)NC1CCCC1)Cc1ccccc1Cl)Nc1ccccn1 | -0.251 |
| CCOC(=O)C1=C(C)N(c2ccccc2)C(=O)/C1=C\c1cccs1 | -0.246 |
| O=C(Oc1ccccc1C(=O)N1CCOCC1)c1ccccc1 | 0.165 |
| CC(C)(Oc1ccc(Cl)cc1)C(=O)OCn1nnc2ccccc2c1=O | 0.136 |
| Cc1cc(C)c2c(N)c(C(=O)Nc3nccs3)sc2n1 | 0.548 |
| CNC(=O)C(=O)Nc1c(C)cc(C)cc1C | -0.0656 |
| CCOc1ccc(NC(=O)CCSc2nc3c(c(CC)c2C#N)C(=O)CC(C)(C)C3)cc1 | -0.202 |
| CCCS(=O)(=O)N1CCC(C(=O)NCCCN2CCC(Cc3ccccc3)CC2)CC1 | 0.0734 |
| Cc1ccc(C(=O)O/N=C/C2=C(Cl)c3ccccc3CC2)cc1 | 0.993 |
| Cc1ccc2cc(/C=N/NC(=O)c3ccccc3O)c(Cl)nc2c1 | -0.549 |
| COc1cc(C(=O)Nc2nc(-c3ccc(Cl)cc3)c(C)s2)ccc1OCC(=O)Nc1ccc(F)cc1 | -0.246 |
| CC(C)COc1nc2ccccc2nc1C(C#N)C(=O)NC1CCCCC1 (stereo unspecified) | -0.0334 |
| CN(C)c1ccc(/C=[N+](\[O-])C2SC(=S)N(C)C2(C)C)cc1 (stereo unspecified) | 0.0932 |
| COc1ccccc1N1CCN(C(=O)CCCN2C(=O)c3cccc4cccc(c34)C2=O)CC1 | -0.334 |
| Cc1ccc(Nc2nc(C)c(CCC(C)C)c(=O)[nH]2)cc1 | 0.22 |
| COc1ccc(CNC(=S)Nc2cc(C)cc(C)c2)cc1 | 0.0468 |
| O=C1/C(=C\c2cccnc2)CCc2ccccc21 | -0.396 |
| CC(=O)C1=C(O)CCC1=NCCc1ccccc1 | -0.0979 |
